This is one part of the list. The full chains were built here from the parent and the listed change. Inactive controls read about 0.05.
B1: TEV protease; numbered along this chain (parent)
chain: MGESLFKGPRDYNPISSSICHLTNESDGHTTSLYGIGFGPFIITNKHLFRRNNGTLVVQSLHGVFKVKDTTTLQQHLVDGRDMIIIRMPKDFPPFPQKLKFREPQREERICLVTTNFQTKSMSSMVSDTSCTFPSGDGIFWKHWIQTKDGQCGSPLVSTRDGFIVGIHSASNFTNTNNYFTSVPKNFMELLTNQEAQQWVSGWRLNADSVLWGGHKVFMVKPEEPFQPVKEATQL

Variants of: B1
Assay: raw area under fraction-flipped curve 0-4 h after induction (AUC4h, not background-subtracted), DNA-recorder readout of cleavage of the substrate (dimensionless); higher = more cleavage of the substrate by the protease variant
Conditions: temperature: 34 °C; time window: 0-4 h after rhamnose induction
Procedure: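 In vivo DNA recorder in E. coli TOP10(DE3) ΔrhaA at 34 °C. Each TEVp single-site mutant (parent TEVp 0) is paired with a single-site variant of the 7-mer TEVs (canonical ENLYFQ|S). The substrate sits between flexible linkers in a Bxb1-sfGFP-TEVs-SsrA fusion, so cleavage stabilises Bxb1 and speeds flipping of a recombination array, read by NGS. The value is the raw area under the fraction-flipped curve over 0-4 h after rhamnose induction (AUC4h), with ≥20 reads per time point. It is not background-subtracted; inactive controls average about 0.047.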
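Note: Bxb1 expression induced with 0.2% (w/v) L-rhamnose at OD600 near 0.5, cultures sampled hourly, flipped fraction per protease–substrate barcode pair counted by paired-end Illumina sequencing.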

Row | Variant | area with substrate ENLYFQA | area with substrate ENLYFQC | area with substrate ENLYFQH | area with substrate ENLYFQI | area with substrate ENLYFQK | area with substrate ENLYFQL | area with substrate ENLYFQM | area with substrate ENLYFQN | area with substrate ENLYFQP | area with substrate ENLYFQQ | area with substrate ENLYFQR | area with substrate ENLYFQS | area with substrate ENLYFQT | area with substrate ENLYFQW | area with substrate ENLYFQY | area with substrate ENLYFQD | area with substrate ENLYFQG | area with substrate ENLYFQV | area with substrate ENLYFQE | area with substrate ENLYFQF
1 | MGESLFKGPRDYNPISSSICHLTNESDGHTTSLYGIGFGPFIITNKHLFRRNNGTLVVQSLHGVFKVKDTTTLQQHLVDGRDMIIIRMPKDFPPFPQKLKFREPQREERICLVTTNFQTKSMSSMVSDTSCTFPSGDGIFWKHWIQTKDGQCGSPLVSTRDGFIVGIHSASNFTNTNNYFTSVPKNFMELLPNQEAQQWVSGWRLNADSVLWGGHKVFMVKPEEPFQPVKEATQL [T192P] | 0.0617 | 0.0602 | 0.0762 | 0.0826 | 0.0613 | 0.0609 | 0.055 | 0.0534 | 0.063 | 0.047 | 0.0557 | 0.0627 | 0.063 | 0.0565 | 0.0646 |  |  |  |  | 
2 | MGESLFKGPRDYNPISSSICHLTNESDGHTTSLYGIGFGPFIITNKHLFRRNNGTLVVQSLHGVFKVKDTTTLQQHLVDGRDMIIIRMPKDFPPSPQKLKFREPQREERICLVTTNFQTKSMSSMVSDTSCTFPSGDGIFWKHWIQTKDGQCGSPLVSTRDGFIVGIHSASNFTNTNNYFTSVPKNFMELLTNQEAQQWVSGWRLNADSVLWGGHKVFMVKPEEPFQPVKEATQL [F95S] | 0.0962 | 0.0755 | 0.0635 | 0.0531 |  | 0.0539 | 0.0725 | 0.0649 | 0.0477 | 0.0507 | 0.0606 | 0.087 | 0.0671 | 0.074 | 0.0653 | 0.0632 | 0.0769 | 0.05 |  | 
3 | MGESLFKGPRDYNPISSSICHLTNESDGHTTSLYGIGFGPFIITNKHLFRRNNGTLVVQSLHGVFKVKDTTTLQQHLVDGRDMIIIRMPKDFPPFPQKLKFREPQRENRICLVTTNFQTKSMSSMVSDTSCTFPSGDGIFWKHWIQTKDGQCGSPLVSTRDGFIVGIHSASNFTNTNNYFTSVPKNFMELLTNQEAQQWVSGWRLNADSVLWGGHKVFMVKPEEPFQPVKEATQL [E108N] | 0.0705 | 0.0758 |  |  |  | 0.0545 | 0.0488 | 0.062 |  | 0.0641 |  | 0.0744 | 0.0785 | 0.0476 | 0.0506 |  | 0.0714 |  | 0.0517 | 
4 | MGESLFKGPRDYNPISSSICHLTNESDGHTTSLYGIGFGPFIITNKHLFRRNNGTLVVQSLHGVFKVKDTTTLQQHLVDGRDMIIIRMPKDFPPFPQKLKFREPQREERICLVTTNFQTKSMSSMVSDTSCTFPSGDGIFWKHWIQTKDGQCGSPLVSTRDGFIVGIHSASNFTNTNNYFTSVPKNFMELLTNQDAQQWVSGWRLNADSVLWGGHKVFMVKPEEPFQPVKEATQL [E195D] | 0.0738 |  |  | 0.0616 | 0.0955 |  | 0.0863 | 0.0502 | 0.0541 |  | 0.0534 | 0.101 | 0.068 | 0.0571 |  | 0.0572 |  |  |  | 0.0467
5 | MGESLFKGPRDYNPISSSICHLTNESDGHTTSLYGIGFGPFIITNKHLFRRNNGTLVVQSLHGVFKVKDTTTLQQHLVDGRDMIIIRMPKDFPPFPQKLKFREPQREERICLHTTNFQTKSMSSMVSDTSCTFPSGDGIFWKHWIQTKDGQCGSPLVSTRDGFIVGIHSASNFTNTNNYFTSVPKNFMELLTNQEAQQWVSGWRLNADSVLWGGHKVFMVKPEEPFQPVKEATQL [V113H] | 0.132 | 0.11 |  | 0.0201 | 0.0695 | 0.0575 | 0.11 | 0.0662 | 0.0619 | 0.0632 | 0.0621 | 0.0994 | 0.0748 | 0.0635 | 0.0635 | 0.0689 | 0.129 | 0.0562 | 0.053 | 0.0867
6 | MGESLFKGPRDYNPISSSICHLTNESDGQTTSLYGIGFGPFIITNKHLFRRNNGTLVVQSLHGVFKVKDTTTLQQHLVDGRDMIIIRMPKDFPPFPQKLKFREPQREERICLVTTNFQTKSMSSMVSDTSCTFPSGDGIFWKHWIQTKDGQCGSPLVSTRDGFIVGIHSASNFTNTNNYFTSVPKNFMELLTNQEAQQWVSGWRLNADSVLWGGHKVFMVKPEEPFQPVKEATQL [H29Q] | 0.0968 |  |  | 0.0682 | 0.0643 | 0.038 | 0.0784 |  | 0.0445 |  | 0.0666 | 0.106 | 0.0664 | 0.0837 | 0.0589 |  |  | 0.0803 |  | 0.0835
7 | MGESLFKGPRDYNPISSSICHLTNESDGWTTSLYGIGFGPFIITNKHLFRRNNGTLVVQSLHGVFKVKDTTTLQQHLVDGRDMIIIRMPKDFPPFPQKLKFREPQREERICLVTTNFQTKSMSSMVSDTSCTFPSGDGIFWKHWIQTKDGQCGSPLVSTRDGFIVGIHSASNFTNTNNYFTSVPKNFMELLTNQEAQQWVSGWRLNADSVLWGGHKVFMVKPEEPFQPVKEATQL [H29W] | 0.0894 | 0.105 | 0.0808 |  | 0.0598 | 0.06 | 0.106 | 0.0709 |  | 0.0638 | 0.0601 | 0.109 | 0.0742 |  |  | 0.0776 | 0.0988 | 0.0663 | 0.0781 | 
8 | MGESLFKGPRDYNPISSSICHLTNESDGHTTSLYGIGFGPFIITNKHLFRRNNGTLVVQSLHGVFKVKDTTTLQQHLVDGRDMIIIRMPKDFPPFPQKLKFREPQREERICLVTTNFQTKSMSSMVSDTSCTFPSGDGIFWKHWIQTKDGQCGSPLVSTRDGFIVGIHSASNFTNTNNYFTSVPKNFMELLTNQEAQQWVSGWRLNADSVLWGGHKVFQVKPEEPFQPVKEATQL [M219Q] | 0.0707 | 0.0981 | 0.0674 | 0.0699 | 0.0525 | 0.0545 | 0.0643 | 0.0645 | 0.0602 | 0.0605 | 0.0665 | 0.0944 | 0.0721 | 0.0971 | 0.0478 | 0.0657 | 0.0887 | 0.0548 |  | 0.0612
9 | MGESLFKGPRDYNPISSSICHLTNESDGHTTSLYGIGFGPFIITDKHLFRRNNGTLVVQSLHGVFKVKDTTTLQQHLVDGRDMIIIRMPKDFPPFPQKLKFREPQREERICLVTTNFQTKSMSSMVSDTSCTFPSGDGIFWKHWIQTKDGQCGSPLVSTRDGFIVGIHSASNFTNTNNYFTSVPKNFMELLTNQEAQQWVSGWRLNADSVLWGGHKVFMVKPEEPFQPVKEATQL [N45D] | 0.0607 | 0.0462 | 0.0662 | 0.0476 | 0.0617 | 0.0535 | 0.0582 | 0.0567 | 0.0636 |  | 0.0649 | 0.0607 | 0.0612 | 0.0171 | 0.0493 | 0.0364 | 0.062 | 0.0546 |  | 

Reference: the supplement of paper PMC12217912
